In all, about 150,000 compounds went through this assay and about 540 (0.36%) showed an effect of 50% or more. This is one part of the list.
system: Plasmodium falciparum; assay: Primary screen in NF54 nanoGlo assay, in single point, at 2uM, 72h; a lower Z score goes with more inhibition; format: functional, Erythrocyte; settings: timepoint 72 hour

Row | SMILES | % Inhibition [%] | Z score
1 | CCc1nn(C)c(Cl)c1CN1C[C@H]2CC[C@@H](C1)[C@H]2OC | -3 | 0.47
2 | C#CC[C@H](CC(F)(F)F)NC(=O)Cc1nnc(-c2ccccc2OC)o1 | -11 | 1.7
3 | O=C(C1CCOCC1)N1CC[C@H](CCOc2ccccc2F)C1 | -7 | 1.25
4 | CC(C)c1nccc(CNCc2n[nH]c(=O)[nH]2)n1 | 10 | -1.29
5 | CCOCCCNC(=O)C1CCOCC1 | 13 | -1.7
6 | CCC(=O)N1CCc2cc(Br)c(S(=O)(=O)CCC(=O)N3CCOCC3)cc21 | -15 | 1.5
7 | Cn1ccnc1C(NCCOC1CCCCO1)C(C)(C)CO (configuration not stated) | -10 | 1.3
8 | O=C(NCc1nc2cccnc2n1Cc1ccc(F)cc1)c1cccnc1 | 1 | -0.11
9 | COc1ccccc1N1CCN(C(=O)CN(Cc2ccco2)S(=O)(=O)c2ccc(C)cc2)CC1 | -18 | 3.43
10 | CC(C)(CN1CCC[C@H]1C(=O)NCC1CCCCC1)S(C)(=O)=O | 1 | -0.14
11 | COc1ccc(/N=C(\NCc2ccncc2)NC(=O)c2ccc(C(C)(C)C)cc2)cc1OC | 1 | -0.24
12 | NC(=O)[C@H]1CCN(C(=O)Cc2csc(-c3ccccc3)n2)C1 | 0 | 0.03
13 | CCN(CC(=O)Nc1cccc(S(N)(=O)=O)c1)CC(=O)NC(C)C | -7 | 0.91
14 | COc1ccc(-c2csc3ncnc(NCc4ncoc4-c4ccccc4)c23)cc1 | -11 | 1.23
15 | c1cc(CCN2CCC[C@H]2c2cn[nH]c2)ccn1 | -1 | 0.13
16 | Cc1n[nH]c(CN(C)CCc2c(C)n[nH]c2C)n1 | 3 | -0.56
17 | C=CCn1c(C(C)CC)nnc1N1CCC(CN(CC)CC(F)(F)F)C1 (configuration not stated) | 1 | -0.13
18 | CC(C)c1c(C(=O)NCCCN2CCOCC2)cnn1-c1nccc(-c2ccco2)n1 | 6 | -0.81
19 | CCOc1ccc(NC(=O)Cn2cc(S(=O)(=O)c3ccc(C)c(C)c3)c(=O)c3ccc(C)nc32)cc1 | -13 | 1.33
20 | CCN(C(=O)COC(=O)c1c(C)nc2ccccc2c1C)c1ccc(F)cc1 | -13 | 1.28
21 | CCc1ncnc(NCCc2ncn(C)c2Br)c1F | -11 | 2.1
22 | Cc1nnc(CCC(=O)N2CC(F)(F)OC(F)(F)C2)o1 | 16 | -1.85

Row | SMILES | % Inhibition [%] | Z score
23 | COCc1ccc(CN[C@@H](C)c2ccc(N3CCCNC3=O)cc2)o1 | 0 | -0.05
24 | COC(=O)c1ccn(CC(=O)Nc2ccnn2C2CCCCC2)n1 | -8 | 1.17
25 | Cc1cncc(S(=O)(=O)NCCCN2CCCO[C@@H](C)C2)c1 | -1 | 0.07
26 | c1ccc(C2=NO[C@@H](CN3CCN(c4ncccn4)CC3)C2)cc1 | -11 | 1.91
27 | Cc1ccccc1CC(=O)N1CC(Cc2nncn2C2CCCC2)C1 | -11 | 1.55
28 | C[C@H](NC(=O)c1cc(Cl)cn1C)c1nncn1C | -6 | 1.09
29 | CCN(Cc1c(F)cccc1F)[C@H]1CCNC1=O | -10 | 1.34
30 | COc1ccc(OC)c(NC(=O)N2CCCn3nc(-c4cccn4C)cc32)c1 | 12 | -1.57
31 | COc1ccc(OCc2cc(C(=O)NCC3CCOCC3)n[nH]2)c(Cl)c1 | 13 | -1.71
32 | CN1CC[C@@H]2CN(Cc3ccc(-c4ccccc4C#N)o3)C[C@@H]21 | -3 | 0.43
33 | O=C(Nc1cccc2c1OCCN2C(=O)C1CCOCC1)C1CCOCC1 | -9 | 0.76
34 | CN1CC[C@H](N(C)C(=O)Cc2ccccc2O)C1=O | -6 | 0.76
35 | Cn1cc(N2CCN(C(=O)[C@H]3CCCN(C(=O)c4ccc(F)cc4)C3)CC2)cn1 | 0 | -0.02
36 | Cc1ccc(NC(=O)CCN(C)CCn2ccnc2C)cc1Cl | -2 | 0.33
37 | CC(C)[C@H](Cn1ccnn1)NC(=O)c1ccc(Cl)c(Cl)c1 | -4 | 0.75
38 | CC1CN(C)c2ccccc2CN1C(=O)C(=O)Nc1ccc(S(=O)(=O)C(C)C#N)cc1 (configuration not stated) | -18 | 1.69
39 | O[C@H]1CN(Cc2nc3c(s2)CCCC3)C[C@@H]1F | -16 | 1.61
40 | O=S(=O)(Cc1ccon1)N1CCN(c2ncc(Cl)cc2F)CC1 | 1 | -0.11
41 | Cn1c(C(=O)O)ccc1-c1ccccc1Cl | -7 | 1.1
42 | N[C@@](C(=O)O)(c1cccc(C(F)(F)F)c1)C(F)(F)F | -14 | 1.86
43 | Cc1n[nH]c(C)c1S(=O)(=O)N1CC[C@@]2(CCCN(CC3CCC3)C2=O)C1 | -10 | 1.3
44 | Cc1nnc2ccc(N3CCCN(c4ccc(C#N)cn4)CC3)nn12 | 4 | -0.43

Row | SMILES | % Inhibition [%] | Z score
45 | COC(=O)[C@H]1CCN(C(=O)NCc2ccncc2)C1 | 0 | 0.01
46 | CC(C)n1nccc1C(=O)N(CCC#N)CC1CC1 | 2 | -0.3
47 | Cc1csc(N(C)C(=O)c2cnc3n2CCCC3)n1 | -15 | 2.94
48 | O[C@H]1CC[C@H](NCc2cccc(F)c2)CC1 | 0 | 0.02
49 | CC(C)(C)OC(=O)NCc1ccccc1CCC(=O)O | -5 | 0.53
50 | O=C(NCC[C@H]1CCCN1)c1ccc(-c2nccc3ccccc23)cc1 | -3 | 0.41
51 | COc1cccc(-c2n[nH]c(CC(C)C)c2NC(=O)Cc2cccs2)c1 | 15 | -2.17
52 | Cc1cccc(CC(=O)N2C[C@@H]3C[C@H](NC(=O)c4cccs4)[C@H]2C3)c1 | 28 | -3.2
53 | CC(C)c1ocnc1C(=O)NC1(C(F)(F)F)CCCCC1 | -4 | 0.49
54 | Cc1ccc(C(=O)c2ccccc2)c(NC(=O)CNS(=O)(=O)c2ccccc2C)c1 | -2 | 0.39
55 | Cc1ccc(Cc2noc(CCc3ccc(C)s3)n2)cn1 | -1 | 0.16
56 | CCC(C#CCN1CCOCC1)(CC)OCCC#N | -4 | 0.54
57 | CNC(=O)C1=C(Nc2ccccc2OC)c2ccccc2S1(=O)=O | -7 | 0.66
58 | COc1cccc([C@@H](C)Nc2cc(C)nc3ccnn23)c1 | -3 | 0.56
59 | O=C(c1cc2occc2[nH]1)N1CCc2nc[nH]c2C1 | 2 | -0.34
60 | Cc1cccc(CN2CC[C@H](CO)[C@H](NC(=O)c3cccnc3)C2)c1 | -1 | 0.17
61 | Cc1nc(-c2cnc(CN3CCCC3)s2)n([C@H]2CCS(=O)(=O)C2)n1 | -11 | 2.13
62 | O=C([C@@H]1CCCO1)N1CCN(c2cc(Nc3ccccn3)ncn2)CC1 | -3 | 0.58
63 | CCc1nocc1CNc1cnc2[nH]ncc2c1 | -5 | 0.55
64 | Cc1ccc(CN(CC(=O)NCCC#N)C(C)C)o1 | -1 | 0.18
65 | Cc1[nH]nc(CCC(=O)N2CC[C@@](O)(C3CCOCC3)[C@H](C)C2)c1C | -3 | 0.42
66 | Cc1cccc(COC(=O)Nc2ccc(NC(=O)c3ccccc3Cl)cc2)c1 | -13 | 1.76

Row | SMILES | % Inhibition [%] | Z score
67 | C#CC[C@H](C)OC(=O)c1ccncc1Cl | -7 | 1.05
68 | CC(C)n1nccc1C(=O)N[C@@H](C)Cc1cccnc1 | 4 | -0.77
69 | CC[C@H](C)C(=O)Nc1nc(C(C)=O)cs1 | -2 | 0.23
70 | Cn1c(N2CCC(C(=O)Nc3ccccc3F)CC2)cc(=O)n(C)c1=O | -6 | 0.93
71 | CCOC(=O)c1c(S(=O)(=O)NCC(=O)Nc2ccc(Cl)cc2C)c(C)n(CC)c1C | 0 | 0.04
72 | CC(C)S(=O)(=O)N1Cc2cncnc2C1 | -7 | 1.27
73 | CN(C)c1ccc(Cn2c(=O)[nH]c3ccccc3c2=O)cn1 | 7 | -0.8
74 | COCCN(CC(=O)N1N=C(c2ccc(OC)cc2)C[C@H]1c1ccc(OC)cc1)C(=O)C1CCC1 | -23 | 3.74
75 | CCc1ccccc1NC(=O)Cn1nc2ccc(C(=O)Nc3ccc(OC)cc3)cn2c1=O | -34 | 2.95
76 | CC(C)[C@H](CNC(=O)NCc1cc(Cl)c2c(c1)OCCO2)c1ccnn1C | -10 | 1.22
77 | Cc1cccc2nc(C(=O)N3CC[C@@]4(CCCN(CCO)C4=O)C3)c(F)n12 | -4 | 0.7
78 | CC1OCCC1NCC#Cc1ccc(C(F)(F)F)cc1 (configuration not stated) | -8 | 1.24
79 | COCCCN(Cc1csc(COc2ccccc2C(C)C)n1)C(=O)Cc1ccccc1 | -2 | 0.34
80 | CC(C)(C)NC(=O)CNC(=O)c1ccc2c(c1)COC2 | 6 | -0.83
81 | COc1ccc(NCc2cc(=O)n3nc(NCc4ccc(C)cc4)nc3[nH]2)cc1 | -4 | 0.65
82 | CCc1nc(C)c(C(=O)Nc2cnn(C(C)C)c2)o1 | -11 | 1.01
83 | CCc1n[nH]c(C(=O)N2CCC3(CC2)[C@H](O)C[C@@H]3OC)c1C | 6 | -0.86
84 | CC(=O)N1CCN(C[C@@H]2OC[C@H](NC(=O)c3cccs3)[C@H]2O)CC1 | -4 | 0.72
85 | Cc1cc(CNc2cc3c(cc2C)OCO3)n[nH]1 | -2 | 0.37
86 | CCc1nnsc1C(=O)NCc1ccc(N2CCCC2=O)cc1 | -9 | 1.27
